From PubChem BioAssay AID360 (National Center for Advancing Translational Sciences (NCATS), 2006)
In all, about 48,000 compounds went through this assay and about 550 (1.1%) were called active. About 4% were inconclusive and are not listed. Cut-off read from the data, not from the text of the source: active = potency below about 15 µM; inconclusive = mostly about 16 µM to 33 µM; inactive = weaker than that. The list shows a part of the results.

Target: Lysosomal acid glucosylceramidase (Homo sapiens) (UniProt P04062)
Assay: Glucocerebrosidase;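 note: the screen sought inhibitors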
Conditions: purified enzyme, resorufin glucoside fluorescence (screen aimed at inhibitors), 20 min
Method in brief: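 Normal human glucocerebrosidase (0.2 nM final) was assayed with resorufin β-D-glucopyranoside (30 uM final) in 50mM citric acid/KH2PO4, 10mM sodium taurocholate, 0.01% tween-20, pH 5.9. Compounds were titrated; fluorescence (Ex 548, Em 600) read after 20 min at RT.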
Potency is the fitted concentration of half-maximal effect.

UniProt P04062, sequence (P04062 whole entry, looked up): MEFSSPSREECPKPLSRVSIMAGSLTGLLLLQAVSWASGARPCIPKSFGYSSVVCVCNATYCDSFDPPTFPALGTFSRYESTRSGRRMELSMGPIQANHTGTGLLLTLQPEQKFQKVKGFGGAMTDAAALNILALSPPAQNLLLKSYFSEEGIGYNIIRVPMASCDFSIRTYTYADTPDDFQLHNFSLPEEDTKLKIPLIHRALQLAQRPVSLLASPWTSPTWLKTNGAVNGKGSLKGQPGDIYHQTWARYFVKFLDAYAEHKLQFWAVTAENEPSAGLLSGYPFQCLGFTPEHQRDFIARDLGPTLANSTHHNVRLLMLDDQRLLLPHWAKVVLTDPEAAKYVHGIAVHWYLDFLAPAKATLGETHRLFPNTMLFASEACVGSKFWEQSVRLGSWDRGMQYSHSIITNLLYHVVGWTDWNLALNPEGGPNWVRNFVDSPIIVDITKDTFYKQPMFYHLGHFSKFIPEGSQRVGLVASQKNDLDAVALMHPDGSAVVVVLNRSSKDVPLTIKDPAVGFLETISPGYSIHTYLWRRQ

Potency, inactive:
O=C1c2ccccc2C(=O)N1c1n[nH]c(CCc2ccccc2)n1 > 76.9 µM
COc1ccc(NC(C)=O)cc1NC(=O)CSc1nnc(-c2ccccn2)n1C > 76.9 µM
Cc1cc(=O)oc2cc(OCC(O)CN3CCN(c4ccc(F)cc4)CC3)ccc12 (centres undefined) > 76.9 µM
O=c1[nH]cc(COCc2ccccc2)c(=O)[nH]1 > 76.9 µM
COc1cc(C2c3c(-c4ccccc4)n[nH]c3C(=O)N2c2ccccc2)ccc1O (centres undefined)
O=C(Oc1cccc(NC(=O)c2ccco2)c1)c1cccc(S(=O)(=O)N2CCCC2)c1
Cc1ccc(S(=O)(=O)NC(CC(=O)NC2CCCC2)c2ccco2)cc1 (centres undefined) > 76.9 µM
COc1cccc(OCC(O)CO)c1 (centres undefined) > 76.9 µM
Cc1cc(C)nc(SCCc2ccncc2)n1 > 76.9 µM
COc1cc(SC)ccc1C(=O)NCCCOC(C)C > 76.9 µM
O=C(NC1=NCCS1)Nc1ccccc1 > 76.9 µM
COc1ccc(S(=O)(=O)N2CCCN(Cc3cccc(F)c3)CC2)cc1 > 76.9 µM
CC1Cc2nc(SCC(=O)Nc3ccc(F)cc3)n(C)c(=O)c2S1 (centres undefined) > 76.9 µM
CCn1c(SCC(=O)C(C)(C)C)nnc1-c1cnccn1 > 76.9 µM
Cc1c(C(=O)NCc2ccc3c(c2)OCO3)oc2ccc(S(=O)(=O)N3CCCCC3)cc12 > 76.9 µM
COc1ccc(Nc2nc3c(c(=O)n(C)c(=O)n3C)n2CCO)cc1 > 76.9 µM
CC1CCN(C(=O)CN(C)S(=O)(=O)c2cccc3nsnc23)CC1 > 76.9 µM
N#Cc1nc(COc2ccccc2)oc1N1CCN(Cc2ccccc2)CC1 > 76.9 µM
COc1ccccc1NC(=O)C1=C(C)Nc2ncnn2C1c1ccccc1C (centres undefined) > 76.9 µM
Cc1cc(C(=O)NCCC2=CCCCC2)no1 > 76.9 µM
CC(C)(C)c1ccc(-c2nc(C#N)c(NCc3ccncc3)o2)cc1 > 76.9 µM
CS(=O)(=O)N(CC(=O)NC1CCCC1)c1cccc(F)c1 > 76.9 µM
O=C(CCSc1nc(-c2ccco2)cc(C(F)(F)F)n1)NCc1ccccn1 > 76.9 µM
Cc1ccc(S(=O)(=O)N2CCN(C(=O)CSc3nnc(-c4ccco4)o3)CC2)cc1 > 76.9 µM
CCN1C(=O)CC(C(=O)NC)SC1=Nc1cc(Cl)c(O)c(Cl)c1 (centres undefined) > 76.9 µM
CCOc1ccc2nc(NCCNC(=O)Nc3cccc(C)c3)c(C#N)cc2c1 > 76.9 µM
CCCc1cc(=O)oc2cc3oc(C)c(C)c3cc12 > 76.9 µM
COC(=O)c1cn(C)c2ccc(S(=O)(=O)N3CCCC3)cc2c1=O > 76.9 µM
COC(=O)c1cn(CC(=O)N2CCCCCC2)c2ccccc12 > 76.9 µM
Cc1cccc(Nc2ncc3c(n2)CC(c2ccco2)CC3=O)c1 (centres undefined) > 76.9 µM
CCOC(=O)N1CCC2(CC1)C(C(=O)C13CC4CC(CC(C4)C1)C3)C2(C#N)C#N (centres undefined) > 76.9 µM
CCCN1C2CCCC1CC(NC(=O)c1ccccc1F)C2 (centres undefined) > 76.9 µM
CCOC(=O)N1CCN(C(=O)c2ccc(NS(C)(=O)=O)cc2)CC1 > 76.9 µM
CCOC(=O)C(C)n1cnc2c(nnn2Cc2ccc(Cl)cc2)c1=O (centres undefined) > 76.9 µM
COc1cc2c(cc1OC)-c1cc(N3CCCCCC3)nc(=O)n1CC2 > 76.9 µM
CC(=O)Nc1nc2c(c3c1c(=O)oc1ccccc13)CC(C)CC2 (centres undefined) > 76.9 µM
C=CCNC(=O)c1ccccc1NS(=O)(=O)c1ccc(SC)cc1
CC(C)CCNC(=O)NC(=O)CSc1nnc2ccccn12 > 76.9 µM
CSc1ccccc1NC(=O)CN(c1cc(C)cc(C)c1)S(C)(=O)=O > 76.9 µM
Cc1csc(SCC(=O)Nc2cccc3nsnc23)n1 > 76.9 µM
C/C(=N\S(=O)(=O)c1ccc(C)cc1)N1CCN(S(=O)(=O)c2ccccc2)C1 > 76.9 µM
Cc1cc(C)n(-c2nc(C)nc(N)n2)n1 > 76.9 µM
CCCCC(CC)C(=O)Nc1ccccc1C#N (centres undefined) > 76.9 µM
c1ccc(Cn2nnnc2CN2CCN(c3ncccn3)CC2)cc1 > 76.9 µM
COc1ccc(C(=O)N2CCC(n3c(C)nc4cc(F)ccc43)CC2)cc1OC > 76.9 µM
O=C(NC1=NCCS1)c1ccc(Cl)s1 > 76.9 µM
Cc1cc(N2C(=O)c3ccc(C(=O)NCc4ccccc4)cc3C2=O)no1 > 76.9 µM
COc1ccccc1C1C2C(=O)N(c3ccccc3)C(=O)C2ON1c1ccccc1 (centres undefined) > 76.9 µM
CC(=O)c1c(N2CCN(C(=O)c3ccco3)CC2)nc(=S)n(-c2ccccc2)c1C > 76.9 µM
CC1CCC(NC(=O)C2CCN(c3cnccn3)CC2)CC1 (centres undefined) > 76.9 µM
CCOC(=O)c1cc(C#N)c(NCc2ccccc2)nc1C > 76.9 µM
CC(=O)c1cc2c(cc1NC(=O)C1CC=CCC1C(=O)O)OCO2 (centres undefined) > 76.9 µM
CCOc1ccc(OCC)c(NC(=O)CN2CCN(c3cc(C)ccc3C)CC2)c1 > 76.9 µM
Cn1c2c(c(=O)[nH]c1=O)C(NC(=O)c1ccco1)(C(F)(F)F)C(=O)N2 (centres undefined) > 76.9 µM
O=C(c1cccs1)N1CCC(c2nc3ccccc3s2)CC1 > 76.9 µM
CCOC(=O)c1c(NC(=O)CSc2nnc(-c3ccccc3)n2CC)sc(C(C)=O)c1C > 76.9 µM
COc1ccc(S(=O)(=O)N(C)CC(=O)Nc2ccccc2OC)cc1C > 76.9 µM
CC(=O)Nc1ccc(C(=O)CS(=O)(=O)c2ccc(C)cc2)cc1 > 76.9 µM
CCn1c(-c2cc(Br)cc(OC)c2O)nc2cc(S(=O)(=O)N(C)C)ccc21 > 76.9 µM
